Assay [1] concerns RAW-Dual. Description: IRF Lucia reporter activity, fold change vs agonist alone; higher = enhanced IRF activity. The settings on record: library stock concentration (final ~1000-fold dilution): 10 mM; cytotoxicity flag (confluency mask): not cytotoxic; agonist: MPLA (TLR4) […]. Summed up: (§1)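 Library stock was pin-tooled at 50 nL into 384-well plates of RAW-Dual macrophages (50,000 cells/well, DMEM), followed 1 h later by a PRR agonist, and the cells were kept at 37 °C, 5% CO2. Supernatant collected after 20 hours was read for IRF by QuantiLuc luminescence and for NF-κB by QuantiBlue absorbance at 620 nm. Reporter activity is fold change over agonist-alone wells, and a well counted as cytotoxic when its IncuCyte confluency was below 70% of agonist controls in both mask sets.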

Assay [2] concerns RAW-Dual. As to the kind of experiment: IRF Lucia reporter activity, fold change vs agonist alone; cytotoxicity flag (confluency mask): not cytotoxic; higher = enhanced IRF activity. Summed up:
as §1

The test system of assay [3] is RAW-Dual. As to the kind of experiment: IRF Lucia reporter activity, fold change vs agonist alone; cytotoxicity flag (confluency mask): cytotoxic (confluency <70% of control); higher = enhanced IRF activity. Summed up:
as §1

[4] abbreviates: agonist: 3'3'-cGAMP (STING) 10 ug/mL.

The full ranking holds about 2,900 compounds; the median of “IRF Lucia reporter activity, fold change vs agonist alone” is about 0.9, and the highest 2% start at about 2.8. This is one part of the list.

`COc1cc(OC2CCN(C)CC2)ccc1Nc1ncc2c(n1)n(C1CCCC1)c(=O)n2C`: the “IRF Lucia reporter activity” value in the assay on RAW-Dual [1] is 0.647.

For `COc1cc(OC2CCN(C)CC2)ccc1Nc1ncc2c(n1)n(C1CCCC1)c(=O)n2C` (library stock concentration (final ~1000-fold dilution): 10 mM), the “IRF Lucia reporter activity” value in the assay with RAW-Dual [2] (setting [4]) is 0.696; in the assay on RAW-Dual [2] (agonist: LPS (TLR4) 0.1 ug/mL), 0.362.

As to `CC(C)[N+](C)(CCOC(=O)C1c2ccccc2Oc2ccccc21)C(C)C` (library stock concentration (final ~1000-fold dilution): 10 mM), the “IRF Lucia reporter activity” value with RAW-Dual [2] (setting [4]) was 1.06; in the assay on RAW-Dual [2] (agonist: LPS (TLR4) 0.1 ug/mL) it was 1.25.

Consider `CC(C)[N+](C)(CCOC(=O)C1c2ccccc2Oc2ccccc21)C(C)C`, for which the “IRF Lucia reporter activity” value in the assay with RAW-Dual [1] came to 1.04.

Turning to `CC(C)=CCC/C(C)=C/CC/C(C)=C/CC/C=C(\C)CC/C=C(\C)CCC=C(C)C` (library stock concentration (final ~1000-fold dilution): 10 mM), the “IRF Lucia reporter activity” value came to 1.02 in the assay with RAW-Dual [2] (setting [4]) and 1.04 in the assay with RAW-Dual [2] (agonist: LPS (TLR4) 0.1 ug/mL).

With `COc1cc2c(Oc3ccc(NC(=O)C4(C(=O)Nc5ccc(F)cc5)CC4)cc3F)ccnc2cc1OCCCN1CCOCC1` (library stock concentration (final ~1000-fold dilution): 10 mM), the figures for the “IRF Lucia reporter activity” value in the assay on RAW-Dual [2] (setting [4]) and in the assay with RAW-Dual [2] (agonist: LPS (TLR4) 0.1 ug/mL) were 0.016 and 0.0481, respectively.

With `COc1cc2c(Oc3ccc(NC(=O)C4(C(=O)Nc5ccc(F)cc5)CC4)cc3F)ccnc2cc1OCCCN1CCOCC1`, in the assay with RAW-Dual [1], the “IRF Lucia reporter activity” value was determined as 0.0626.

In the case of `CC(=O)c1ccc2c(c1)c1cc(C(C)=O)ccc1n2CCNC(C)C` (library stock concentration (final ~1000-fold dilution): 10 mM), the “IRF Lucia reporter activity” value with RAW-Dual [3] (setting [4]) was 0.0136; in the assay with RAW-Dual [3] (agonist: LPS (TLR4) 0.1 ug/mL), 0.0204.

As for `COc1cc(N2CCC(N(C)C)CC2)ccc1Nc1ncc(Cl)c(Nc2ccccc2P(C)(C)=O)n1`, the “IRF Lucia reporter activity” value in the assay with RAW-Dual [1] turned out to be 0.484.

Take `COc1cc(N2CCC(N(C)C)CC2)ccc1Nc1ncc(Cl)c(Nc2ccccc2P(C)(C)=O)n1` (library stock concentration (final ~1000-fold dilution): 10 mM): the “IRF Lucia reporter activity” value in the assay on RAW-Dual [2] (setting [4]) amounted to 0.218; in the assay with RAW-Dual [2] (agonist: LPS (TLR4) 0.1 ug/mL), 0.111.

For `Cl.Clc1ccc2nsnc2c1NC1=NCCN1` (library stock concentration (final ~1000-fold dilution): 10 mM), the “IRF Lucia reporter activity” value in the assay on RAW-Dual [2] (setting [4]) was 0.945; with RAW-Dual [2] (agonist: LPS (TLR4) 0.1 ug/mL) it was 1.05.

As to `Cl.Clc1ccc2nsnc2c1NC1=NCCN1`, in the assay on RAW-Dual [1], the “IRF Lucia reporter activity” value came out at 0.746.

As for `Nc1ccccc1S(N)(=O)=O` (library stock concentration (final ~1000-fold dilution): 10 mM), the “IRF Lucia reporter activity” value in the assay on RAW-Dual [2] (setting [4]) turned out to be 1.06; in the assay on RAW-Dual [2] (agonist: LPS (TLR4) 0.1 ug/mL) it was 0.92.

With `Nc1ccccc1S(N)(=O)=O`, the “IRF Lucia reporter activity” value in the assay on RAW-Dual [1] was found to be 1.

For the molecule `CNC(C)C(=O)NC(C(=O)N1CCCC1C(=O)Nc1snnc1-c1ccccc1)C1CCCCC1` (stereo not drawn), the “IRF Lucia reporter activity” value with RAW-Dual [1] stood at 0.481.

For the molecule `CNC(C)C(=O)NC(C(=O)N1CCCC1C(=O)Nc1snnc1-c1ccccc1)C1CCCCC1` (stereo not drawn) (library stock concentration (final ~1000-fold dilution): 10 mM), the “IRF Lucia reporter activity” value in the assay with RAW-Dual [2] (setting [4]) amounted to 0.622; in the assay on RAW-Dual [2] (agonist: LPS (TLR4) 0.1 ug/mL), 0.38.

Turning to `N#C/C(=C\c1cn(-c2ccccc2)c2ccccc12)C(=O)O`, the “IRF Lucia reporter activity” value in the assay with RAW-Dual [1] came out at 0.957.

Turning to `N#C/C(=C\c1cn(-c2ccccc2)c2ccccc12)C(=O)O` (library stock concentration (final ~1000-fold dilution): 10 mM), the “IRF Lucia reporter activity” value is 0.901 with RAW-Dual [2] (setting [4]) and 1.26 with RAW-Dual [2] (agonist: LPS (TLR4) 0.1 ug/mL).

For the molecule `Brc1ccc(C2CN3CCSC3=N2)cc1.O=C(O)C(=O)O` (stereo not drawn) (library stock concentration (final ~1000-fold dilution): 10 mM), the “IRF Lucia reporter activity” value in the assay on RAW-Dual [2] (setting [4]) was determined as 1.03; in the assay with RAW-Dual [2] (agonist: LPS (TLR4) 0.1 ug/mL), 0.728.

Regarding `Brc1ccc(C2CN3CCSC3=N2)cc1.O=C(O)C(=O)O` (stereo not drawn), the “IRF Lucia reporter activity” value in the assay on RAW-Dual [1] turned out to be 1.03.

In the case of `CCN(CC)CCNC(=O)c1cc(Cl)c(N)cc1OC` (library stock concentration (final ~1000-fold dilution): 10 mM), the “IRF Lucia reporter activity” value came out at 0.982 in the assay with RAW-Dual [2] (setting [4]) and 1.09 in the assay on RAW-Dual [2] (agonist: LPS (TLR4) 0.1 ug/mL).

As for `CCN(CC)CCNC(=O)c1cc(Cl)c(N)cc1OC`, the “IRF Lucia reporter activity” value in the assay on RAW-Dual [1] came to 0.96.

Turning to `CC(C)c1nc(CN(C)C(=O)NC(CCN2CCOCC2)C(=O)NC(CCC(Cc2ccccc2)NC(=O)OCc2cncs2)Cc2ccccc2)cs1` (stereo not drawn), the “IRF Lucia reporter activity” value with RAW-Dual [1] came out at 0.99.

As to `CC(C)c1nc(CN(C)C(=O)NC(CCN2CCOCC2)C(=O)NC(CCC(Cc2ccccc2)NC(=O)OCc2cncs2)Cc2ccccc2)cs1` (stereo not drawn) (library stock concentration (final ~1000-fold dilution): 10 mM), the “IRF Lucia reporter activity” value in the assay with RAW-Dual [2] (setting [4]) was found to be 0.572; with RAW-Dual [2] (agonist: LPS (TLR4) 0.1 ug/mL) it was 0.956.

Regarding `CC(C)C1C(=O)NC(CCCNC(=N)N)C(=O)NCC(=O)NC(CC(=O)O)C(=O)NC(Cc2ccccc2)C(=O)N1C.O=C(O)C(F)(F)F` (stereo not drawn) (library stock concentration (final ~1000-fold dilution): 10 mM), the results for the “IRF Lucia reporter activity” value in the assay with RAW-Dual [2] (setting [4]) and in the assay on RAW-Dual [2] (agonist: LPS (TLR4) 0.1 ug/mL) were 1 and 1.17, respectively.

For the molecule `CC(C)C1C(=O)NC(CCCNC(=N)N)C(=O)NCC(=O)NC(CC(=O)O)C(=O)NC(Cc2ccccc2)C(=O)N1C.O=C(O)C(F)(F)F` (stereo not drawn), the “IRF Lucia reporter activity” value in the assay with RAW-Dual [1] is 1.15.

Turning to `COC1/C=C/OC2(C)Oc3c(C)c(O)c4c(O)c(c(/C=N/N5CCN(C)CC5)c(O)c4c3C2=O)NC(=O)/C(C)=C/C=C/C(C)C(O)C(C)C(O)C(C)C(OC(C)=O)C1C` (stereo not drawn) (library stock concentration (final ~1000-fold dilution): 10 mM), the figures for the “IRF Lucia reporter activity” value in the assay on RAW-Dual [2] (setting [4]) and with RAW-Dual [2] (agonist: LPS (TLR4) 0.1 ug/mL) were 1.2 and 1.01, respectively.

Take `COC1/C=C/OC2(C)Oc3c(C)c(O)c4c(O)c(c(/C=N/N5CCN(C)CC5)c(O)c4c3C2=O)NC(=O)/C(C)=C/C=C/C(C)C(O)C(C)C(O)C(C)C(OC(C)=O)C1C` (stereo not drawn): the “IRF Lucia reporter activity” value in the assay with RAW-Dual [1] turned out to be 0.809.

The values above are taken from the supplement of paper PMC10037445.
